# About 4,000 (1%) of roughly 390,000 compounds were called active. Inconclusive results, whose numbers are uncertain, are shown with a selection of clear calls. Calls come from the whole dose curve; as a rule, active = well fitted inhibition curve with a large enough effect; inconclusive = small, poorly fitted or top-dose-only effect; inactive = no such curve, though single readings can be large or run the other way. Potencies of inconclusive entries are doubtful fits and often do not repeat.
# Target: Thioredoxin reductase 1, cytoplasmic (Rattus norvegicus) (UniProt O89049)
# Experiment: qHTS Assay for Inhibitors of Mammalian Selenoprotein Thioredoxin Reductase 1 (TrxR1): qHTS; note: nearly all actives have a fitted effect of over 65% in size
# Conditions: recombinant rTrxR1, NADPH fluorescence consumption, selenite substrate; series mostly up to 114 µM; activity change, negative = inhibition: at the top concentration
# Procedure, shortened: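 Rat TrxR1 (90 nM in the dispensed reagent) was pre-reduced with 400 uM NADPH for 5 min at room temperature, then incubated with compound for 15 min. After 400 uM selenite was added, NADPH fluorescence (Ex 340/Em 450 nm) was followed for 8 min.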
# % is set by controls: 0 for no effect and ±100 for the full control effect; potency is the fitted concentration of half-maximal effect; tags give direction and shape of the fitted curve.
# UniProt O89049, sequence (O89049 whole entry, looked up): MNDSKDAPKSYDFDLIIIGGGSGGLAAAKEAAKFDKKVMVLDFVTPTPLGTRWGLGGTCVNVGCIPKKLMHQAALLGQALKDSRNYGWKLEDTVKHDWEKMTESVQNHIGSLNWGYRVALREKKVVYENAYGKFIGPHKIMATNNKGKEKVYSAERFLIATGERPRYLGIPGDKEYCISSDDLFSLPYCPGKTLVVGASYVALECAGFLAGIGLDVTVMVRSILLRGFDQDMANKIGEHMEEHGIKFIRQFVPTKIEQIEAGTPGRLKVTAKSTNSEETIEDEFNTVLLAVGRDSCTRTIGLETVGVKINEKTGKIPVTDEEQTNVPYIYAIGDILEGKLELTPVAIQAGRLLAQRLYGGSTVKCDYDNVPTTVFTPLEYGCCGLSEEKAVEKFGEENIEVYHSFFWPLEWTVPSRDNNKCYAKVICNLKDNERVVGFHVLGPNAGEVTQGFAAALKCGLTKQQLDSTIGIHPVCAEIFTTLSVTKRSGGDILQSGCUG
Structure (SMILES),"activity change, negative = inhibition",Potency
O=C(CCCn1c(=O)c2ccccc2n(CC(=O)Nc2cccc(Cl)c2)c1=O)NCc1ccc2c(c1)OCO2,inactive: 8.76%,
O=C(CN1c2cccc3cccc(c23)S1(=O)=O)NCCc1ccc(F)cc1,,"inconclusive: 31.6 µM [inhibitor, partial curve, poor fit]"
CC1CCC(NC(=O)COC(=O)c2ccc3ncsc3c2)CC1 (stereo unspecified),inactive: 19.9%,
CCCCCC(=O)Nc1cc(S(=O)(=O)O)cc2cc(S(=O)(=O)O)cc(O)c12,,"inconclusive: 89.1 µM [inhibitor, single point]"
CCOC(=O)N1CCN(C(=O)Nc2sc3nc4n(c(=O)c3c2C)CCC(C)CC4)CC1 (stereo unspecified),,active: 28.2 µM
CC(C)CNS(=O)(=O)c1ccc(CCC(=O)N2CCN(c3ccccc3)CC2)cc1,inactive: 14.1% [at 57.1 µM],
Cc1cc(C)cc(NC(=S)N2CCN(S(C)(=O)=O)CC2)c1,,"inconclusive: 89.1 µM [inhibitor, single point]"
COc1ccc(N2CC(C(=O)Nc3ccc(S(=O)(=O)N4CCCCC4)cc3)CC2=O)cc1 (stereo unspecified),inactive: -4.6%,
COCCn1c(C)cc(O)c(C(c2ccc(Cl)cc2)N2CCN(c3ccccc3)CC2)c1=O (stereo unspecified),,"inconclusive: 2.51 µM [inhibitor, full curve]"
O=C(CSc1nnc(Cc2cccs2)n1Cc1ccco1)Nc1ccc(Br)cc1,,"inconclusive: 70.8 µM [inhibitor, partial curve]"
Cc1ccc(C(=O)CSc2n[nH]c(C)n2)cc1,,"inconclusive: 89.1 µM [inhibitor, single point]"
COc1ccc(C(=O)N(C)Cc2ccc(C)o2)cc1OC1CCN(C(C)C)CC1,,"inconclusive: 89.1 µM [inhibitor, single point]"
S=C(NCc1ccco1)Nc1cc(-c2ccccc2)[nH]n1,,"inconclusive: 56.2 µM [inhibitor, partial curve, poor fit]"
COc1cc(NC(=O)CCNS(=O)(=O)c2cc(Br)cnc2N)cc(OC)c1,inactive: 20.7%,
COc1ccc2[nH]c(=O)c(CN(Cc3ccco3)Cc3nnnn3Cc3ccccc3)cc2c1,,"inconclusive: 39.8 µM [inhibitor, partial curve]"
c1ccc2c(C[n+]3csc4ccccc43)cccc2c1,,"inconclusive: 5.62 µM [inhibitor, partial curve, poor fit]"
CN(Cc1ccccc1)C(=O)c1ccc(NC(=O)Cc2ccc(NC(=O)C3CCCN(C(=O)C4CCC4)C3)cc2)cc1 (stereo unspecified),inactive: -6.99%,
CCN(CC)Cc1c(O)ccc2c(C)c(CC(=O)OC)c(=O)oc12,,"inconclusive: 31.6 µM [inhibitor, full curve, poor fit]"
COc1ccc(CCNC(=O)c2cc3c(s2)-c2c(C)cccc2OC3)c(OC)c1,inactive: 27.8%,
CC(C)c1cc(C(=O)NC(C)c2ccccc2)no1 (stereo unspecified),inactive: 11.8%,
CN(C)CCCNc1oc(/C=C/c2cccs2)nc1S(=O)(=O)c1ccccc1,,"inconclusive: 39.8 µM [inhibitor, partial curve, poor fit]"
Cc1ccc(S(=O)(=O)NC(C)C(=O)NC2CCCCCC2)cc1 (stereo unspecified),inactive: 4.63%,
CCCCN(C(=O)c1cc(-c2ccco2)nc2ccccc12)c1c(N)n(CCC)c(=O)[nH]c1=O,,active: 79.4 µM
CCCCCCN(CCCCCC)c1ccc(/C=C/c2ccnc3ccccc23)cc1,inactive: -20.5%,

Structure (SMILES),"activity change, negative = inhibition",Potency
C=CCC1(CC=C)CCCN1C(=O)C1CCC(=O)N(CCc2ccc(Cl)cc2)C1 (stereo unspecified),,"inconclusive: 11.2 µM [inhibitor, partial curve, poor fit]"
Cc1cccc(CSC2=NCCN2C(=O)C2CC2)c1,,"inconclusive: 89.1 µM [inhibitor, single point]"
CCCC1C(c2ccc(OC)cc2)C(C#N)(C#N)C2(C#N)CC1(N)NC2=O (stereo unspecified),,"inconclusive: 15.8 µM [inhibitor, partial curve, poor fit]"
COc1ccc(/C=C/c2cc(C(=O)O)c3ccccc3n2)cc1,inactive: -13.7%,
CCOC(=O)C1=C(C)OC(N)=C(C#N)C1c1ccc(C)o1 (stereo unspecified),,"inconclusive: 31.6 µM [inhibitor, single point]"
CC1(C)Cc2c(C#N)c(NCC3CCCO3)nc(-c3ccco3)c2CO1 (stereo unspecified),,"inconclusive: 56.2 µM [inhibitor, single point]"
Clc1cccc[n+]1CCCCCC[n+]1ccccc1Cl,,active: 56.2 µM
CCc1cc(C(=O)OC)c(NC(=O)CC2NCCNC2=O)s1 (stereo unspecified),,"inconclusive: 15.8 µM [inhibitor, partial curve]"
O=C(Nc1cc(F)ccc1F)c1ccc(-n2cncn2)c([N+](=O)[O-])c1,inactive: 12.3%,
CCOc1cc(NC(=S)NCC2CCCO2)c(OCC)cc1NC(=O)c1ccccc1 (stereo unspecified),,"inconclusive: 39.8 µM [inhibitor, partial curve, poor fit]"
CCOC(=O)c1sc(/N=C/c2ccc(O)cc2O)cc1C,,"inconclusive: 28.2 µM [inhibitor, single point]"
Cc1ccc(NC(=O)c2ccc(CN3CCc4ccccc4C3)cc2)cc1,,"inconclusive: 56.2 µM [inhibitor, partial curve]"
COC(=O)c1ccc(NC(=O)COc2ccccc2C(=O)Nc2ccccc2)cc1,inactive: 21.9%,
COc1ccccc1C(=O)Nc1ccc(OCC(=O)N2CC(C)CC(C)C2)cc1 (stereo unspecified),inactive: 17.8%,
O=C(CSc1nnc(-c2cccnc2)n1Cc1ccccc1)NCc1ccco1,,"inconclusive: 25.1 µM [inhibitor, partial curve, poor fit]"
CCC(=S)/C=C1\Sc2ccccc2N1CCCS(=O)(=O)O,,"inconclusive: 14.1 µM [inhibitor, partial curve]"
O=C(CNCc1ccc(Cl)cc1)NCc1ccco1,,"inconclusive: 79.4 µM [inhibitor, single point]"
CCOC(=O)C1CCCN(Cc2ccc(O)c(OC)c2)C1 (stereo unspecified),,"inconclusive: 79.4 µM [inhibitor, single point]"
CCn1cc(CN2CCCC(C(=O)Nc3cccc(-c4cc5ccccc5[nH]4)c3)C2)c(C)n1 (stereo unspecified),inactive: 28.4%,
N#Cc1ccc(C#Cc2ccc3oc4ccccc4c(=O)c3c2)cc1,inactive: 34.6% [at 57.1 µM],
Cc1onc(-c2ccc(Cl)cc2Cl)c1-c1csc(COc2ccccc2)n1,inactive: 15.4%,
N#CC(C(=O)NCc1ccco1)c1nc2ccccc2nc1N1CCOCC1 (stereo unspecified),,"inconclusive: 20 µM [inhibitor, partial curve]"
Cc1ccc(NC(=O)CC2(CC(=O)O)CCCC2)c(C)c1,,"inconclusive: 89.1 µM [inhibitor, partial curve, poor fit]"
Cc1cc(C)n(Cc2ccc(C(=O)NCc3ccco3)o2)n1,,"inconclusive: 56.2 µM [inhibitor, partial curve]"

Structure (SMILES),"activity change, negative = inhibition",Potency
CCN(CC)c1ccccc1/C=C/[n+]1ccc(CCCCI)c2ccccc21,,"inconclusive: 56.2 µM [inhibitor, partial curve]"
Cc1ccccc1N1C(=O)Cc2ccccc2C1=O,,"inconclusive: 50.1 µM [inhibitor, partial curve, poor fit]"
Cn1c(COc2ccccc2)nnc1SCC(=O)c1cccc([N+](=O)[O-])c1,,"inconclusive: 44.7 µM [inhibitor, partial curve]"
CCCCOC(=O)c1ccc(NC(=O)c2ccc3c(c2)CCCN3S(C)(=O)=O)cc1,inactive: 55.2%,
Cc1ccc2c(C(=O)CN3CCOCC3)c(C)[nH]c2c1,,"inconclusive: 31.6 µM [inhibitor, partial curve]"
CSc1ccc(NC(=O)/C=C/C(=O)O)cc1,,"inconclusive: 22.4 µM [inhibitor, single point]"
O=C(NCCCc1ccccc1)c1cccc(Br)c1,inactive: 24.3%,
Cc1cc(=O)n2nc(N3CCC(C(=O)NCCCOC(C)C)CC3)sc2n1,inactive: -9.54%,
CC(C)C(CC(=O)NCc1ccco1)c1ccco1 (stereo unspecified),,"inconclusive: 56.2 µM [inhibitor, partial curve, poor fit]"
COc1cc(C(=O)OCC(=O)Nc2ccc(N3CCOCC3)cc2)ccc1OCC(C)C,inactive: 1.84%,
O=C(NC(=S)Nc1ccccc1N1CCCC1)c1ccc(F)cc1,,"inconclusive: 79.4 µM [inhibitor, single point]"
CCOC(=O)/C=C(\C)Sc1cc(=O)oc2ccccc12,inactive: -34.5%,
O=C(CCS(=O)(=O)c1cccc2nonc12)N1CCN(c2ccc(F)cc2)CC1,,"inconclusive: 31.6 µM [inhibitor, single point]"
CC1CCN(C(=O)c2ccc(S(=O)(=O)Cc3cc(F)ccc3F)c([N+](=O)[O-])c2)CC1,,active: 10 µM
O=C(N/N=C/c1ccc[nH]1)c1cccnc1,,"inconclusive: 28.2 µM [inhibitor, single point]"
COc1ccccc1CNC(=O)C1CCN(S(=O)(=O)c2c(C)noc2/C=C/c2cccs2)CC1,inactive: 25.2%,
CN(Cc1ccccc1)C(=O)COC(=O)/C=C/c1ccco1,inactive: -77.6%,
O=c1oc(-c2ccco2)nc2c1cnn2-c1ccccc1,,"inconclusive: 39.8 µM [inhibitor, single point]"
Cc1cccc(OCCn2c(-c3ccco3)nc3ccccc32)c1,,"inconclusive: 35.5 µM [inhibitor, full curve]"
COC(=O)C1=C(C)OC(N)=C(C#N)C1c1ccc(OC)c(CSc2ccccn2)c1 (stereo unspecified),,"inconclusive: 44.7 µM [inhibitor, partial curve]"
O=C(CSc1ccc2nnc(-c3ccncc3)n2n1)NCc1ccco1,,"inconclusive: 70.8 µM [inhibitor, single point]"
CCCCN(CC)CCCNC(=O)c1cc2cc3ccc(C)cc3nc2o1,,"inconclusive: 14.1 µM [inhibitor, partial curve]"
O=C1N/C(=N/S(=O)(=O)c2ccccc2)S/C1=C/c1cccnc1,,"inconclusive: 28.2 µM [inhibitor, partial curve, poor fit]"
